The other results are listed elsewhere or left out.
B1: PhoQ; a variant is named by its letters at X, in order, P23837 (parent)
chain: MKKLLRLFFPLSLRVRFLLATAAVVLVLSLAYGMVALIGYSVSFDKTTFRLLRGESNLFYTLAKWENNKLHVELPENIDKQSPTMTLIYDENGQLLWAQRDVPWLMKMIQPDWLKSNGFHEIEADVNDTSLLLSGDHSIQQQLQEVREDDDDAEMTHSVAVNVYPATSRMPKLTIVVVDTIPVELKSSYMVWSWFIYVLSANLLLVIPLLWVAAWWSLRPIEALAKEVRELEEHNRELLNPATTRELTSLVRNLNRLLKSERERYDKYRTTLTDLTHSLKTPLXXLQXXLRSLRSEKMSVSDAEPVMLEQISRISQQIGYYLHRASMRGGTLLSRELHPVAPLLDNLTSALNKVYQRKGVNISLDISPEISFVGEQNDFVEVMGNVLDNACKYCLEFVEISARQTDEHLYIVVEDDGPGIPLSKREVIFDRGQRVDTLRPGQGVGLAVAREITEQYEGKIVAGESMLGGARMEVIFGRQHSAPKDE

Variants of: B1
Assay: enrichment ratio after two sorts for PhoP signalling (ratio (wild type AVST 3.29)); higher = more functional
Conditions: with PhoP (E. coli)

Variant | enrichment ratio
HITR | ≤ 0.25
YWAH | 0.301
SWCG | ≤ 0.25
NGAI | ≤ 0.25
SQPG | ≤ 0.25
YNGC | 0.307
WDVQ | ≤ 0.25
ASHS | ≤ 0.25
STPI | 10.9
FPDT | ≤ 0.25
VQFT | ≤ 0.25
ISQS | ≤ 0.25
WVMG | ≤ 0.25
AGHL | 0.911
NKTG | ≤ 0.25
SLNK | ≤ 0.25
MELY | ≤ 0.25
IMHG | ≤ 0.25
YLQK | ≤ 0.25
TQTH | 6.85
QNTL | ≤ 0.25
GNWP | ≤ 0.25
FQNL | ≤ 0.25
MAGC | 5.37
SGAK | ≤ 0.25
ESCT | ≤ 0.25

Variant | enrichment ratio
VADK | ≤ 0.25
TTDC | 2.92
MPWL | ≤ 0.25
WYTF | ≤ 0.25
PAIP | ≤ 0.25
KVRL | ≤ 0.25
SVQF | 6.23
PKLR | ≤ 0.25
RAVR | ≤ 0.25
YTAM | ≤ 0.25
AEQD | ≤ 0.25
SPDE | ≤ 0.25
TWRA | ≤ 0.25
LFTG | ≤ 0.25
ADLM | 12.7
GCCQ | 8.03
PWVA | ≤ 0.25
DSMH | ≤ 0.25
HPDL | ≤ 0.25
SSSG | 8.68
QAIN | ≤ 0.25
VVDR | 1.03
DIAD | ≤ 0.25
NMSI | ≤ 0.25
GMQY | ≤ 0.25
KLMD | ≤ 0.25

Variant | enrichment ratio
AWID | ≤ 0.25
IRTP | ≤ 0.25
WHMW | ≤ 0.25
PHSD | ≤ 0.25
PCWW | ≤ 0.25
AWWL | ≤ 0.25
DWKG | ≤ 0.25
LGES | ≤ 0.25
LHIK | 1.49
IFAL | ≤ 0.25
MLSE | ≤ 0.25
DHHH | ≤ 0.25
PQPK | ≤ 0.25
IWSH | ≤ 0.25
EQTR | ≤ 0.25
VQHC | ≤ 0.25
PAAD | ≤ 0.25
QHGI | ≤ 0.25
DQCR | ≤ 0.25
LCCC | ≤ 0.25
MHTY | ≤ 0.25
AMFQ | ≤ 0.25
WDNC | ≤ 0.25
EFAS | ≤ 0.25
IIVP | ≤ 0.25
SDPV | ≤ 0.25

Variant | enrichment ratio
MRQL | ≤ 0.25
RYNM | ≤ 0.25
DIRT | ≤ 0.25
GIAN | 8.67
LISK | ≤ 0.25
NRTK | ≤ 0.25
VDFW | ≤ 0.25
SHVY | 9.82
RKIA | ≤ 0.25
VAGW | ≤ 0.25
LWGD | ≤ 0.25
MWDG | ≤ 0.25
NWSW | ≤ 0.25
KPAM | ≤ 0.25
DAAN | ≤ 0.25
QVLF | ≤ 0.25
YWPK | ≤ 0.25
HKYG | ≤ 0.25
KIGH | ≤ 0.25
DQAD | ≤ 0.25
LWFM | ≤ 0.25
GPPH | ≤ 0.25
YYPG | ≤ 0.25
APSK | ≤ 0.25
WIPW | ≤ 0.25
NKPN | ≤ 0.25

Variant | enrichment ratio
MVVV | ≤ 0.25
ECGV | ≤ 0.25
RNFW | ≤ 0.25
FWWM | ≤ 0.25
SFGL | ≤ 0.25
WIMC | ≤ 0.25
DVIW | ≤ 0.25
QNSY | ≤ 0.25
AHWR | ≤ 0.25
PIDL | ≤ 0.25
WVRD | ≤ 0.25
HMNQ | ≤ 0.25
GSAP | ≤ 0.25
DMVL | ≤ 0.25
DPCW | ≤ 0.25
SRMG | ≤ 0.25
DSSN | ≤ 0.25
MFNK | ≤ 0.25
HFYN | ≤ 0.25
GWQW | ≤ 0.25
PAID | ≤ 0.25
DFIK | ≤ 0.25
GMVF | 3.94
TCCE | ≤ 0.25
ALGE | ≤ 0.25
RCEC | ≤ 0.25

Variant | enrichment ratio
HGGL | ≤ 0.25
ETLR | ≤ 0.25
PAML | ≤ 0.25
IECM | ≤ 0.25
YMLP | ≤ 0.25
PAYR | ≤ 0.25
SDTM | ≤ 0.25
TYVF | ≤ 0.25
NACL | 4.16
VTES | ≤ 0.25
PFEV | ≤ 0.25
NPIL | ≤ 0.25
EFAC | ≤ 0.25
PCRL | ≤ 0.25
TFHG | ≤ 0.25
WKDW | ≤ 0.25
HRSY | ≤ 0.25
DHIA | ≤ 0.25
LMIF | ≤ 0.25
KGSF | ≤ 0.25
TFTC | 4.88
KGNS | ≤ 0.25
SLDH | ≤ 0.25
